In a collection of fitness landscapes (doi:10.1126/science.1257360) one finds enrichment ratio data, which are given here for 306 variants.

The chains are these.
B1: PhoQ; a variant is named by its letters at X, in order, P23837 (parent)
chain: MKKLLRLFFPLSLRVRFLLATAAVVLVLSLAYGMVALIGYSVSFDKTTFRLLRGESNLFYTLAKWENNKLHVELPENIDKQSPTMTLIYDENGQLLWAQRDVPWLMKMIQPDWLKSNGFHEIEADVNDTSLLLSGDHSIQQQLQEVREDDDDAEMTHSVAVNVYPATSRMPKLTIVVVDTIPVELKSSYMVWSWFIYVLSANLLLVIPLLWVAAWWSLRPIEALAKEVRELEEHNRELLNPATTRELTSLVRNLNRLLKSERERYDKYRTTLTDLTHSLKTPLXXLQXXLRSLRSEKMSVSDAEPVMLEQISRISQQIGYYLHRASMRGGTLLSRELHPVAPLLDNLTSALNKVYQRKGVNISLDISPEISFVGEQNDFVEVMGNVLDNACKYCLEFVEISARQTDEHLYIVVEDDGPGIPLSKREVIFDRGQRVDTLRPGQGVGLAVAREITEQYEGKIVAGESMLGGARMEVIFGRQHSAPKDE

The other results are listed elsewhere or left out.

The variants in this experiment derive from B1. Put plainly: enrichment ratio after two sorts for PhoP signalling (ratio (wild type AVST 3.29)); higher = more functional. The settings on record: with PhoP (E. coli).
Take PATC: the enrichment ratio was ≤ 0.25.
The same measure for NVLI: ≤ 0.25; for MVRP: ≤ 0.25.
Then FRST, with ≤ 0.25.
The same measure for FCCF: ≤ 0.25; for QPFS: ≤ 0.25.
For WQRV, the enrichment ratio was ≤ 0.25.
The same measure for ETRS: ≤ 0.25.
Then DGDP, with ≤ 0.25; and ISFF, with ≤ 0.25.
Regarding TQRD, the enrichment ratio is ≤ 0.25.
The same measure for KATQ: ≤ 0.25; for SEDK: ≤ 0.25.
For the variant GMYP, the enrichment ratio is ≤ 0.25.
Then FASD, with ≤ 0.25; and KLCF, with ≤ 0.25; and DLSK, with ≤ 0.25.
Then NNHQ, with ≤ 0.25; and HHQK, with ≤ 0.25; and LPVC, with ≤ 0.25.
The same measure for MWQQ: ≤ 0.25.
In the case of PVIP, the enrichment ratio was ≤ 0.25.
Then WCKR, with ≤ 0.25.
As for VMKQ, the enrichment ratio is ≤ 0.25.
As to QLIS, the enrichment ratio was ≤ 0.25.
For GTWF, the enrichment ratio is ≤ 0.25.
For TPRA, the enrichment ratio was ≤ 0.25.
Then SRNR, with ≤ 0.25; and FNFF, with 1.
Turning to YYMQ, the enrichment ratio was ≤ 0.25.
Turning to HKYI, the enrichment ratio is ≤ 0.25.
Then VDWM, with ≤ 0.25; and TWTM, with ≤ 0.25; and DSRA, with ≤ 0.25.
Then SIDH, with ≤ 0.25; and DMAP, with ≤ 0.25; and APNL, with ≤ 0.25.
The same measure for PCHT: ≤ 0.25; for AQRF: ≤ 0.25; for QTTY: ≤ 0.25.
VLVR: the enrichment ratio is ≤ 0.25.
Then DLNR, with ≤ 0.25; and IRRK, with ≤ 0.25.
For the variant YANG, the enrichment ratio was ≤ 0.25.
With KNMQ, the enrichment ratio was ≤ 0.25.
As to TMTL, the enrichment ratio was determined as 20.9.
The same measure for GSWL: ≤ 0.25.
WFMF: the enrichment ratio was ≤ 0.25.
In the case of GCLG, the enrichment ratio was 14.9.
Consider RYKC, for which the enrichment ratio is ≤ 0.25.
The same measure for TSGR: ≤ 0.25; for PPAF: ≤ 0.25; for FDFP: ≤ 0.25.
The same measure for KHMR: ≤ 0.25; for RFER: ≤ 0.25.
Consider HDGD, for which the enrichment ratio is ≤ 0.25.
The same measure for RTPD: ≤ 0.25; for NVTS: ≤ 0.25; for GRMC: ≤ 0.25.
Take FFNY: the enrichment ratio was ≤ 0.25.
Then HGPW, with 2.35.
Then SEIF, with 8.09.
With YEWQ, the enrichment ratio is ≤ 0.25.
The same measure for KGSI: ≤ 0.25; for HSGY: ≤ 0.25.
On to CLLC, for which the enrichment ratio was ≤ 0.25.
Then DKTG, with ≤ 0.25; and LRFW, with ≤ 0.25.
Then MESA, with 1.15.
As for TLKS, the enrichment ratio is ≤ 0.25.
Consider DYDN, for which the enrichment ratio was ≤ 0.25.
PSFA: the enrichment ratio was ≤ 0.25.
GRDE: the enrichment ratio is ≤ 0.25.
On to VWVC, for which the enrichment ratio is ≤ 0.25.
For HGLI, the enrichment ratio amounted to 13.3.
Take THLL: the enrichment ratio came to 14.
Then INTS, with ≤ 0.25.
The same measure for PKDW: ≤ 0.25; for EKLI: ≤ 0.25; for ISAP: ≤ 0.25.
As to RACV, the enrichment ratio was ≤ 0.25.
The same measure for IHRC: ≤ 0.25; for VYNG: ≤ 0.25; for VQIP: ≤ 0.25.
Then AWEP, with ≤ 0.25.
Then FCCA, with ≤ 0.25.
As for ITKQ, the enrichment ratio is ≤ 0.25.
With YFMF, the enrichment ratio was ≤ 0.25.
Consider APVQ, for which the enrichment ratio was ≤ 0.25.
Regarding YAEV, the enrichment ratio is ≤ 0.25.
On to ILNQ, for which the enrichment ratio was ≤ 0.25.
With SLTP, the enrichment ratio was ≤ 0.25.
The same measure for HSTR: ≤ 0.25; for WCDR: ≤ 0.25; for DWKD: ≤ 0.25.
Take YAIQ: the enrichment ratio was ≤ 0.25.
Turning to WEYS, the enrichment ratio is ≤ 0.25.
The same measure for MMGW: ≤ 0.25; for YRLV: ≤ 0.25.
For the variant VIFV, the enrichment ratio is ≤ 0.25.
Regarding LVDI, the enrichment ratio was ≤ 0.25.
The same measure for HQWT: ≤ 0.25; for FCVS: ≤ 0.25; for SEEW: ≤ 0.25.
The same measure for WQLQ: ≤ 0.25; for EVCD: ≤ 0.25; for TRWN: ≤ 0.25.
WKLQ: the enrichment ratio is ≤ 0.25.
The same measure for DKVK: ≤ 0.25; for DAAY: ≤ 0.25; for WFYK: ≤ 0.25.
Take RDAL: the enrichment ratio is ≤ 0.25.
The same measure for QFCY: ≤ 0.25; for HGKG: ≤ 0.25.
The same measure for ILWQ: ≤ 0.25.
Then MLSI, with 3.87; and SVRV, with ≤ 0.25; and LHAF, with ≤ 0.25.
As to AFGT, the enrichment ratio is ≤ 0.25.
With DDNT, the enrichment ratio was ≤ 0.25.
Take DNFK: the enrichment ratio is ≤ 0.25.
Consider AHTT, for which the enrichment ratio is ≤ 0.25.
As to AEWA, the enrichment ratio is ≤ 0.25.
Then DEGN, with ≤ 0.25.
For NERE, the enrichment ratio was ≤ 0.25.
Turning to PQAC, the enrichment ratio is ≤ 0.25.
Then KTFV, with ≤ 0.25.
For VTML, the enrichment ratio is 15.3.
The same measure for GESY: 12.8.
With SWKD, the enrichment ratio was ≤ 0.25.
Then MFCV, with ≤ 0.25.
The same measure for DYVE: ≤ 0.25; for YHEQ: ≤ 0.25; for AGQE: ≤ 0.25.
Then KQDQ, with ≤ 0.25; and TAGW, with ≤ 0.25; and SCQM, with 30.8.
As for AEGS, the enrichment ratio is 9.26.
The same measure for DDWV: ≤ 0.25; for WPVP: ≤ 0.25; for VGKD: ≤ 0.25.
Then YRHH, with ≤ 0.25.
The same measure for QAKH: ≤ 0.25; for IPMG: ≤ 0.25.
As for LWRW, the enrichment ratio was ≤ 0.25.
Then SVKV, with ≤ 0.25; and SFDR, with ≤ 0.25.
For the variant TQGV, the enrichment ratio worked out at 7.37.
Then GCSR, with ≤ 0.25; and EEHC, with ≤ 0.25; and YFCF, with ≤ 0.25.
For the variant YMHS, the enrichment ratio is ≤ 0.25.
On to HWRL, for which the enrichment ratio was ≤ 0.25.
For the variant DYTC, the enrichment ratio was ≤ 0.25.
Then QMDK, with ≤ 0.25.
Then TFKT, with ≤ 0.25.
As for YEAL, the enrichment ratio is ≤ 0.25.
Turning to HQLL, the enrichment ratio is ≤ 0.25.
For the variant SFFW, the enrichment ratio was ≤ 0.25.
EFGK: the enrichment ratio is ≤ 0.25.
For SCNA, the enrichment ratio was ≤ 0.25.
The same measure for FFQL: ≤ 0.25; for DRFK: ≤ 0.25.
Then GTLR, with ≤ 0.25; and NWLW, with ≤ 0.25; and RKNN, with ≤ 0.25.
Turning to KPPS, the enrichment ratio is ≤ 0.25.
As to TLLC, the enrichment ratio was 1.31.
Then SDWP, with ≤ 0.25; and VLCV, with ≤ 0.25.
For MRGQ, the enrichment ratio is ≤ 0.25.
The same measure for TIWQ: ≤ 0.25.
On to FPFE, for which the enrichment ratio is ≤ 0.25.
Take HAYL: the enrichment ratio was ≤ 0.25.
Then FIIE, with ≤ 0.25; and VSIA, with ≤ 0.25; and GTAL, with 5.81.
The same measure for SKEY: ≤ 0.25.
The same measure for TVCH: ≤ 0.25.
Regarding DWPM, the enrichment ratio is ≤ 0.25.
Then QNAK, with ≤ 0.25; and IVMY, with ≤ 0.25.
For DTDC, the enrichment ratio is ≤ 0.25.
WQPW: the enrichment ratio is ≤ 0.25.
Turning to HHEK, the enrichment ratio was ≤ 0.25.
MKHE: the enrichment ratio is ≤ 0.25.
Take RVMD: the enrichment ratio was ≤ 0.25.
Consider CMSI, for which the enrichment ratio turned out to be 0.38.
As for YKQA, the enrichment ratio is ≤ 0.25.
With VYES, the enrichment ratio is ≤ 0.25.
DYYM: the enrichment ratio was ≤ 0.25.
Then PELV, with ≤ 0.25; and KLDA, with ≤ 0.25; and LCLI, with ≤ 0.25.
The same measure for KGPF: ≤ 0.25.
The same measure for NLKY: ≤ 0.25.
Consider NGYV, for which the enrichment ratio is ≤ 0.25.
Then RNET, with ≤ 0.25; and RFCE, with ≤ 0.25; and KRSA, with ≤ 0.25.
The same measure for VQNR: ≤ 0.25.
Then MEFF, with 2.84; and VNHR, with ≤ 0.25; and IVHR, with ≤ 0.25.
In the case of EDGG, the enrichment ratio is ≤ 0.25.
Consider VWDY, for which the enrichment ratio was ≤ 0.25.
Then WISN, with ≤ 0.25.
With MEPE, the enrichment ratio was ≤ 0.25.
Then QCIL, with ≤ 0.25.
The same measure for DGHH: ≤ 0.25.
The same measure for VMGQ: ≤ 0.25; for IPWQ: ≤ 0.25; for HHWE: ≤ 0.25.
Take DSNV: the enrichment ratio was ≤ 0.25.
Then LGGN, with ≤ 0.25; and WRKF, with ≤ 0.25.
With PQVK, the enrichment ratio is ≤ 0.25.
The same measure for WSHT: ≤ 0.25; for EFYH: ≤ 0.25; for TVKL: ≤ 0.25.
Then GGTA, with ≤ 0.25.
On to TEWS, for which the enrichment ratio worked out at 28.5.
Then RFPN, with ≤ 0.25; and CLHH, with ≤ 0.25.
In the case of KIRG, the enrichment ratio is ≤ 0.25.
Then FMGW, with ≤ 0.25.
With QYVA, the enrichment ratio is ≤ 0.25.
Take PREG: the enrichment ratio was ≤ 0.25.
The same measure for TMLR: 0.765; for DFYM: ≤ 0.25; for NTIG: ≤ 0.25.
For FRVI, the enrichment ratio is ≤ 0.25.
The same measure for WFNS: ≤ 0.25; for WYPH: ≤ 0.25; for QAML: 1.05.
The same measure for FETN: ≤ 0.25; for FGTY: ≤ 0.25; for LHEI: ≤ 0.25.
Then EILA, with ≤ 0.25.
As to NIVP, the enrichment ratio was ≤ 0.25.
Then MPGV, with ≤ 0.25.
The same measure for IGWA: ≤ 0.25; for RTLD: ≤ 0.25.
The same measure for SYKR: ≤ 0.25; for KNDL: ≤ 0.25.
In the case of HETH, the enrichment ratio was ≤ 0.25.
The same measure for GTPT: ≤ 0.25; for ERYR: ≤ 0.25; for QMMI: ≤ 0.25.
The same measure for SAHH: ≤ 0.25.
As for TDPC, the enrichment ratio is ≤ 0.25.
In the case of AHSR, the enrichment ratio was ≤ 0.25.
Take KLNW: the enrichment ratio was ≤ 0.25.
Turning to HSFT, the enrichment ratio was ≤ 0.25.
For the variant INWF, the enrichment ratio is ≤ 0.25.
The same measure for SWLR: ≤ 0.25; for GNPK: ≤ 0.25.
Take LWRI: the enrichment ratio was ≤ 0.25.
The same measure for TRMM: 9.22.
Consider YICI, for which the enrichment ratio was found to be 1.09.
Consider KMIS, for which the enrichment ratio is ≤ 0.25.
For the variant DIVV, the enrichment ratio was ≤ 0.25.
PCDM: the enrichment ratio is ≤ 0.25.
The same measure for DWEC: ≤ 0.25; for RTNA: ≤ 0.25.
In the case of SCPA, the enrichment ratio was ≤ 0.25.
The same measure for HWGD: ≤ 0.25.
On to WIHS, for which the enrichment ratio is ≤ 0.25.
Take HCSR: the enrichment ratio is ≤ 0.25.
In the case of NIMG, the enrichment ratio was ≤ 0.25.
Then DAHY, with ≤ 0.25; and WDRA, with ≤ 0.25.
Then MNKV, with ≤ 0.25; and VPLQ, with ≤ 0.25.
The same measure for DYHM: ≤ 0.25.
NGRR: the enrichment ratio is ≤ 0.25.
Then YWCK, with ≤ 0.25; and VWWC, with ≤ 0.25; and LEFH, with ≤ 0.25.
For LAWR, the enrichment ratio is ≤ 0.25.
Consider VTWI, for which the enrichment ratio is ≤ 0.25.
On to RQSD, for which the enrichment ratio was ≤ 0.25.
The same measure for VTIV: ≤ 0.25; for MHEK: ≤ 0.25; for PVGA: ≤ 0.25.
Then KHGF, with ≤ 0.25.
Then EQIR, with ≤ 0.25; and RGKW, with ≤ 0.25; and HDPG, with ≤ 0.25.
Consider EILS, for which the enrichment ratio was ≤ 0.25.
Turning to GDDG, the enrichment ratio was ≤ 0.25.
As to TGNT, the enrichment ratio was 15.8.
GWLM: the enrichment ratio is ≤ 0.25.
For the variant KLGD, the enrichment ratio was ≤ 0.25.
Take RVCM: the enrichment ratio is ≤ 0.25.
Then PKFT, with ≤ 0.25; and MYVK, with ≤ 0.25.
The same measure for FYGV: ≤ 0.25.
As to IAPL, the enrichment ratio was found to be 0.723.
In the case of NDDL, the enrichment ratio is ≤ 0.25.
Regarding QQDW, the enrichment ratio is ≤ 0.25.
Then VYYK, with ≤ 0.25; and NEMR, with ≤ 0.25; and AQGP, with ≤ 0.25.
The same measure for SVVL: 0.885; for RRCP: ≤ 0.25.
